According to article PMC11653366 (2024):

Assays:
[1] = biological target: T1, F*-p40; experiment: fluorescence anisotropy
T1 chain: APTYSPPPPP

[2] = biological target: T2, F*-PLLP; experiment: fluorescence anisotropy
T2 chain: LASRPLPLLP

B1: C100W Abl SH3 SH3 (protein)
chain: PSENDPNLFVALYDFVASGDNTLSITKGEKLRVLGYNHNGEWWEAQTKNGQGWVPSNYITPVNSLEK
- Kd [1]: 55 µM
- Kd [2]: > 1000 µM
